In assay [1] the target is T1, human CD3 epsilon 1-26_Fc fusion protein (human).
T1 construct: also called human CD3 1-26_Fc fusion protein
Nature of the assay: SPR, scFv-Fc format, graded relative to chimeric SP34; one grade for human and cynomolgus protein. For orientation: SPR reads the build-up and loss of mass on a sensor chip optically.

In assay [2] the target is T2, cynomolgus monkey CD3 epsilon 1-26_Fc fusion protein (cynomolgus monkey).
T2 construct: also called cynomolgus CD3 epsilon 1-26 Fc fusion protein
The description is as above.

From patent US20190135918A1 (ICHNOS SCIENCES, published 2019) come the findings set out here.

B1: VH2/VL21 (scFv)
scFv-Fc: EVQLVESGGGLVQPGGSLRLSCAASGFTFNTYAMNWVRQAPGKGLEWVARIRSKYNNYATYYADSVKSRFTISRDDSKNTLYLQMNSLRAEDTAVYYCVRHGNFGNSYVSWFAYWGQGTTVTVSSGGGGSGGGGSGGGGSEIVVTQSPATLSVSPGERATLSCRSSTGAVTTSNYANWVQEKPGQAFRGLIGGANKRAPGVPARFSGSLSGDEATLTISSLQSEDFAVYYCALWYSNLWVFGQGTKLEIKGGGGT[not shown - human IgG1 Fc]
notes: also called humanized SP34 VH2/VL21 scFv-Fc fusion
With B1, the binding result in assay [1] and in assay [2] was “binds” in each case.

B2: VH5/VL32 (scFv)
scFv-Fc: EVQLVESGGGLVQPGGSLRLSCAASGFTFNTYAMNWVRQAPGKGLEWVARIRSKYNNYATYYADSVKGRFTISRDDSKNTLYLQMNSLRAEDTAVYYCVRHGNFGNSYVSYFAYWGQGTTVTVSSGGGGSGGGGSGGGGSEIVVTQSPATLSVSPGERATLSCRSSTGAVTAANYANWVQEKPGQAFRGLIGGANKRAPGVPARFSGSLSGDEATLTISSLQSEDFAVYYCALFYSNLWVFGQGTKLEIKGGGGT[not shown - human IgG1 Fc]
notes: also called humanized SP34 VH5/VL32 scFv-Fc fusion; hSP34 H5/L32 scFv-Fc
Consider B2, for which the binding result in assay [1] and in assay [2] was “binds” in each case.
